55 sequences from the supplement of paper PMC11417369 can be followed below.

± gives the standard deviation of the averaged measurements. Some of the results follow.

This assay has as its system PfAP2-EXP AP2 domain (GST-tagged). Nature of the assay: gcPBM binding intensity (ln(normalized median fluorescence intensity)); higher = stronger DNA binding. The essentials:
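Binding intensity is the highest Masliner-normalised natural-log median intensity over replicate spots in either probe orientation. To obtain it, GST-tagged P. falciparum DNA-binding domains made in E. coli were incubated for 1 h on an Agilent 4 × 180k array of primer-extended double-stranded 36-bp intergenic genomic probes plus negative controls. Detection used Alexa488 anti-GST antibody with scanning at 488 nm.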
In the case of “TGGGTAAACAAACACACACACATATATATATATATA [CACACA_site1992]”, the “gcPBM binding intensity (ln)” value is 10.1 ± 0.49. As for “AGTTGTTACGAACATACACACGAACATAGACACGGA [CACACA_site8102]”, the “gcPBM binding intensity (ln)” value was 9.01 ± 0.47.

As to “ATGAGTGTAATAATATGTACATAACCTACATAATTT [XGTACX_site852]”, the “gcPBM binding intensity (ln)” value is 8.57 ± 0.41. For “TTATTTAAATAATATGTACACACATTTAAAAAATTA [CACACA_site8912]”, the “gcPBM binding intensity (ln)” value is 8.35 ± 0.3. “AAAAAAAAATATATAAACACACATATTTATATACAC [GTGCAC_negctrl_site545]”: the “gcPBM binding intensity (ln)” value was 8.36 ± 0.31. As for “GCACACATATAATAATGTACATATATATATTTAAAA [XGTACX_site4561]”, the “gcPBM binding intensity (ln)” value was found to be 8.68 ± 0.26.

In the case of “TATTGATTATTTGAATGTACTTATTATATTAAATAT [XGTACX_site1304]”, the “gcPBM binding intensity (ln)” value was found to be 8.34 ± 0.24. For the sequence “ACACGCACATATATATAAATATATATATATATAAAT [CACACA_negctrl_site1781]”, the “gcPBM binding intensity (ln)” value worked out at 8.4 ± 0.47. On to “AATAAAAATATTTTTACATGCAAATGTTATATATTT [TGCATGCA_site1056]”, for which the “gcPBM binding intensity (ln)” value was 8.9 ± 0.22.

Regarding “ATTCTACACAGACATACACACATATATATATATATA [CACACA_site5826]”, the “gcPBM binding intensity (ln)” value was 10.2 ± 0.4. Turning to “AAAAAAAATTATTATGAACACACATTTATTATATTC [CACACA_site8443]”, the “gcPBM binding intensity (ln)” value came out at 8.09 ± 0.3.

“TATATATGTTTATGTAGTACTATATATCCCTTTCTT [XGTACX_site7049]”: the “gcPBM binding intensity (ln)” value came to 8.66 ± 0.52. “TAATATGATCTTAATAGTACTTTATTAATAATAACC [XGTACX_site1953]”: the “gcPBM binding intensity (ln)” value is 8.33 ± 0.35. Turning to “TAGAATAAGATAGATATACACACCATTATAAATATA [CACACA_site2500]”, the “gcPBM binding intensity (ln)” value was found to be 8.53 ± 0.38.

Regarding “AAAAAAAAAAGACACACACACAAAAAAAGATATATA [CACACA_site6645]”, the “gcPBM binding intensity (ln)” value was determined as 8.51 ± 0.65. Take “TTACAAAATAAGAGGCACAAACACAAAAAAAAATAA [CACACA_negctrl_site574]”: the “gcPBM binding intensity (ln)” value amounted to 8.68 ± 0.52.

For the sequence “ATAAAAATATTACGCACACACAAACTTATTCATTAT [CACACA_site1969]”, the “gcPBM binding intensity (ln)” value worked out at 8.56 ± 0.31. For “GTAACTTTATTATACTGTACTATTATATAAGCACAC [XGTACX_site2859]”, the “gcPBM binding intensity (ln)” value came to 9.01 ± 0.042. The result for “TTGTTCAAACAAAAAATAAAATAATTGAAAATAAAA [CACACA_negctrl_site812]” reads 8.29 ± 0.33. Turning to “ATTACAATATATACGTGTACATATTACCACCGCTAC [XGTACX_site2308]”, the “gcPBM binding intensity (ln)” value was 8.93 ± 0.33.

As for “TGTAAAAAATTTAACACACACATATATATATATATA [CACACA_site2585]”, the “gcPBM binding intensity (ln)” value amounted to 10.1 ± 0.41.

Regarding “AATGTTTATTTTGTTTGTACATAAAATGAATAAAAT [XGTACX_site1456]”, the “gcPBM binding intensity (ln)” value came to 8.47 ± 0.29. Turning to “TATATATATTTATGCACACAAAATATATTATAGAAT [CACACA_site3740]”, the “gcPBM binding intensity (ln)” value was 8.45 ± 0.35.

In the case of “GTTATATATTTTTATGCATGCATTTTTAAATATATA [TGCATGCA_site175]”, the “gcPBM binding intensity (ln)” value came out at 10.1 ± 0.56. The result for “TTATTCCTTTTCCTTTTTTTTTTTTAACCAAAAAAA [CACACA_negctrl_site309]” reads 8.56 ± 0.38; that for “TTTATATATATAAATATGTAGATAACAATATTCTGA [TGCATGCA_negctrl_site554]”, 8.16 ± 0.44. Consider “ATACATAAATTTTGTACACACAAAAAAAAAAAAGCT [CACACA_site1351]”, for which the “gcPBM binding intensity (ln)” value is 8.7 ± 0.45. On to “AAAATATACATATATGCATGCATATAAATAAAAAAA [TGCATGCA_site812]”, for which the “gcPBM binding intensity (ln)” value is 9.81 ± 0.11.

As for “GATAAAACGTTATGCACACGTACGTGAGTATTTATA [CACACA_site1570]”, the “gcPBM binding intensity (ln)” value stood at 8.85 ± 0.13. With “AACAAAACTTTGGATACATGCAAAATTTTTAAATGA [TGCATGCA_site249]”, the “gcPBM binding intensity (ln)” value was 8.61 ± 0.39.

Take “AATGATAAATAAAAAGCATGCAACAAATAAAAATAA [TGCATGCA_site453]”: the “gcPBM binding intensity (ln)” value worked out at 9.84 ± 0.22.

Regarding “GTTTTTTTGTTTTAAAGTACTTAAAAAAAAAATATA [XGTACX_site6998]”, the “gcPBM binding intensity (ln)” value was 8.44 ± 0.35. Turning to “CTTTTATAATTCATATGTACTTATTTTTAACATAGG [XGTACX_site7808]”, the “gcPBM binding intensity (ln)” value turned out to be 8.71 ± 0.42. Regarding “TGTACATATATATATATATATGTTACTGAAATAAAA [CACACA_negctrl_site1658]”, the “gcPBM binding intensity (ln)” value came out at 8.51 ± 0.28.

In the case of “AAGAATAACTTTTATACATGCAGCATAATATATTGT [TGCATGCA_site605]”, the “gcPBM binding intensity (ln)” value worked out at 8.9 ± 0.19. Regarding “GGTATACACAAGTATACACACATATAAATATAAATA [CACACA_site7511]”, the “gcPBM binding intensity (ln)” value is 8.5 ± 0.45. As to “TCTTTTAACACATGTGATATTATTTAATAACAATAA [CACACA_negctrl_site339]”, the “gcPBM binding intensity (ln)” value was 8.48 ± 0.43. As to “AATAACCACAGACACACACACATATAAATATAAATA [CACACA_site7631]”, the “gcPBM binding intensity (ln)” value turned out to be 8.64 ± 0.46.

As to “ATATATATGTATACATGTACATATTTTATTATGTGC [XGTACX_site7207]”, the “gcPBM binding intensity (ln)” value was determined as 8.64 ± 0.15. As for “GTGATTAATATATACACACATACATATATATATATA [CACACA_site2817]”, the “gcPBM binding intensity (ln)” value came out at 10 ± 0.35. Take “AAAAGTAAAAAAAAAAAAAGTAAAAAAAAAAAAAAA [CACACA_negctrl_site389]”: the “gcPBM binding intensity (ln)” value came to 8.21 ± 0.43. On to “TTACAGATATTTATCTGTACATATATTTAAAAATAT [XGTACX_site7431]”, for which the “gcPBM binding intensity (ln)” value is 8.26 ± 0.25. With “TAATTTTTTTAAAAGCGTACATTTAAAAAAAAATAT [XGTACX_site2736]”, the “gcPBM binding intensity (ln)” value was found to be 8.37 ± 0.27. On to “TTTTTAAATTCTTTAATATGTTTTATATATCAAAAT [CACACA_negctrl_site75]”, for which the “gcPBM binding intensity (ln)” value turned out to be 8.08 ± 0.34.

As to “TCTTATCATTTTAAATCACACACATATATATATATA [CACACA_site8925]”, the “gcPBM binding intensity (ln)” value stood at 10.2 ± 0.16. The result for “TTATTTTATTTAGGGTGTACCCAATTTTTCCATATG [XGTACX_site4957]” reads 8.66 ± 0.36. Consider “ACTGTAATATTGAAAGTGCATTAAAGTGTATATTAT [GTGCAC_site9970]”, for which the “gcPBM binding intensity (ln)” value amounted to 8.94 ± 0.11. The result for “AAAAATTTTTTACATCGTACAGATATATATAATAAA [XGTACX_site3331]” reads 8.66 ± 0.41; that for “TCCTATAATTTTTTAATCAAAATATTTTATCCTTTG [CACACA_negctrl_site793]”, 8.39 ± 0.36.

Regarding “ATTTATATTTATAAATGTACACATATATATTTCATT [XGTACX_site2723]”, the “gcPBM binding intensity (ln)” value is 8.48 ± 0.32.

In the case of “TGTATATTTGATTCATGTACATATTTTATTTTAACT [XGTACX_site5169]”, the “gcPBM binding intensity (ln)” value turned out to be 8.78 ± 0.23. For “CCTATATAATTATAATGTACTTGTAAAAAATATAAC [XGTACX_site2864]”, the “gcPBM binding intensity (ln)” value was found to be 8.7 ± 0.4.

For the sequence “CAGATTTATTCAAACGCATGCTGTTTTAAAATAAAA [TGCATGCA_site874]”, the “gcPBM binding intensity (ln)” value was 8.65 ± 0.47. Consider “AAATATAAAAAATATACACACATATATAATATATAT [CACACA_site2963]”, for which the “gcPBM binding intensity (ln)” value came out at 8.41 ± 0.33.

Regarding “TAAGACTATTAAAAAATTGAGTACATGAACTGTTCA [GTGCAC_negctrl_site670]”, the “gcPBM binding intensity (ln)” value amounted to 8.28 ± 0.31.
